Test results published in PubChem BioAssay AID360 (National Center for Advancing Translational Sciences (NCATS), 2006).
Screen size: about 48,000 compounds; about 550 (1.1%) were called active. Roughly 4% stayed inconclusive and do not appear here. No stated cut-off is given here; in the data, active means potency below about 15 µM; inconclusive means mostly about 16 µM to 33 µM; inactive means weaker than that. The list shows a part of the results.

The compounds below were run against Lysosomal acid glucosylceramidase (Homo sapiens) (UniProt P04062) (assay: Glucocerebrosidase). Conditions: purified enzyme, resorufin glucoside fluorescence (screen aimed at inhibitors), 20 min; series mostly up to 77 µM.
Procedure, shortened: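 Compounds titrated against 0.2 nM normal enzyme, 30 uM resorufin beta-D-glucopyranoside substrate, citrate/phosphate buffer with taurocholate and tween-20, pH 5.9. Reaction ran 20 min at room temperature; fluorescence (Ex 548/Em 600) gave AC50.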
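Further: the screen sought inhibitors.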
Potency means the concentration at half of the fitted maximal effect.

Chain of UniProt P04062 (P04062 whole entry, looked up): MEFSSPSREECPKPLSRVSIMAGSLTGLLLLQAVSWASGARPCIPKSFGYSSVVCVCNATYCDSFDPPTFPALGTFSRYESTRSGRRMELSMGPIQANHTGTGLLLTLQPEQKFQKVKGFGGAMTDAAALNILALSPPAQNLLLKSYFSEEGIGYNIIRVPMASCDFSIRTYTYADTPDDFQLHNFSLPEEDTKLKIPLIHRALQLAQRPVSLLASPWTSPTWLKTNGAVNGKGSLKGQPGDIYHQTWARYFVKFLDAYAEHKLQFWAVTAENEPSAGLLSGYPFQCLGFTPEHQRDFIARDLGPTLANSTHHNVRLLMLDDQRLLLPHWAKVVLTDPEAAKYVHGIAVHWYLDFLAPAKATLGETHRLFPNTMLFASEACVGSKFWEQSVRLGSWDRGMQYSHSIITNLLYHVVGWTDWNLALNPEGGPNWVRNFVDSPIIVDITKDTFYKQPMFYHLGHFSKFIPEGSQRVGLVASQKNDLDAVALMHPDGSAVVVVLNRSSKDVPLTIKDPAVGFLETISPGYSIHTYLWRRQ

Potency, inactive:
CC(=O)Nc1ccc(S(=O)(=O)N2CCC(n3cnc4cc(F)ccc43)CC2)cc1 > 76.9 µM, CC(=O)Oc1ccc(N2C(=O)CCC2=O)cc1 > 76.9 µM, O=C(Nc1ccon1)C(Sc1ccccc1)c1ccccc1 (stereo not drawn) > 76.9 µM, COC(=O)c1ccccc1NC(=O)CSc1nnnn1C1CCCCC1 > 76.9 µM, COc1ccc2c(C)cc(SCC#N)nc2c1 > 76.9 µM, O=C(NC(Cc1ccccc1)C(=O)O)c1ccc(S(=O)(=O)N2CCCC2)cc1 (stereo not drawn) > 76.9 µM, CCN(c1ccccc1)c1nc2ccsc2c(=O)s1 > 76.9 µM, O=C(NCC1CCCO1)c1ccccc1-c1nc(-c2ccccc2)no1 (stereo not drawn) > 76.9 µM, O=C(Cn1cnc2ccccc2c1=O)N1CCN(Cc2ccccc2)CC1 > 76.9 µM, O=C(CCC1CCCC1)N1CCN(C(=O)c2cccnc2)CC1 > 76.9 µM, COc1cc(-c2nnc(SCC#CCO)o2)cc(OC)c1OC > 76.9 µM, COc1cccc(OC)c1C(=O)Nn1c(C2CCC2)nc2ccccc2c1=O > 76.9 µM, O=C(C1CCCN1S(=O)(=O)c1ccc(Cl)c(Cl)c1)N1CCCCC1 (stereo not drawn) > 76.9 µM, COc1ccccc1N1CCN(CC(=O)Nc2cc(F)ccc2C)CC1 > 76.9 µM, CCOC(=O)c1[nH]c(C)c(/C(O)=C2\C(=O)C(=O)N(CCCN3CCOCC3)C2c2cccnc2)c1C (stereo not drawn) > 76.9 µM, COc1ccc(NC(=O)c2[nH]c(C)c(C(C)=O)c2C)cc1Cl > 76.9 µM, O=C(Nc1cccc2c1CCCC2)C1CCN(c2nnnn2-c2ccccc2)CC1 > 76.9 µM, C(=N\n1cnnc1)/c1ccc2ncccc2c1 > 76.9 µM, O=S(=O)(Cc1ccccc1)N1CCCC(c2nc(-c3ccc(F)cc3)no2)C1 (stereo not drawn) > 76.9 µM, CC1(C)CC(=O)C=C(NCCN2CCN(C(=O)Nc3ccccc3)CC2)C1 > 76.9 µM, COc1ccc(CN(CC(=O)NCC2CCCO2)C(=O)CNS(=O)(=O)c2ccc(C)cc2)cc1 (stereo not drawn) > 76.9 µM, FC(F)(F)c1ccc(N2CCOCC2)c(NC2=NCCCCC2)c1 > 76.9 µM, Cc1cccc(OCC(=O)Nc2ccc3c(c2)nc(CCN2CCN(C)CC2)n3C)c1 > 76.9 µM, Cc1ccc(N2CC(C(=O)N3CCCc4ccccc43)CC2=O)cc1 (stereo not drawn) > 76.9 µM, COc1ccccc1NC(=O)Nn1cnnc1 > 76.9 µM, COC(=O)c1sccc1NC(=O)c1ccc(Cl)s1 > 76.9 µM, CCOC(=O)C1=C(c2ccccc2)Nc2nc(C)nn2C1c1cccc(OC)c1OC (stereo not drawn) > 76.9 µM, Cc1cccc(N(C)S(=O)(=O)c2ccc3[nH]cc(C(=O)N4CCOCC4)c(=O)c3c2)c1 > 76.9 µM, Cc1ccccc1Cn1c(=O)c2c(nc3n2CCN3Cc2ccco2)n(C)c1=O > 76.9 µM, CCOC(=O)CSc1nnc(CNC(=O)Cc2ccccc2)n1C > 76.9 µM, CCCOc1ccc(OC(=O)c2ccc(Br)o2)cc1 > 76.9 µM, CCOC(=O)c1cnc2ccc(Cl)cc2c1N1CCN(C)CC1, CCOc1ccc(C2CC(=O)c3c([nH]c(C(=O)OC)c3C)C2)cc1OC (stereo not drawn) > 76.9 µM, CCOC(=O)N1CCN(CC(=O)Nc2cc(C)nn2-c2nc3ccccc3s2)CC1 > 76.9 µM, Cc1ccccc1NC(=O)NCCCN1CCN(C2CCCCC2)CC1 > 76.9 µM, O=C(c1ccc(Br)o1)N1CCN(c2ccccn2)CC1 > 76.9 µM, O=C(c1ccc2c(c1)OCO2)N1CCCc2ccccc21 > 76.9 µM, Cc1nnc(SCC(=O)Nc2ccc(S(=O)(=O)N3CCCC3)cc2)n1N > 76.9 µM, CCOc1ccc(C2C(C(=O)c3ccco3)=C(O)C(=O)N2Cc2cccnc2)cc1OC (stereo not drawn) > 76.9 µM, CC(C)COC(=O)c1ccc(NC(=O)C2C3C=CC(C3)C2C(=O)O)cc1 (stereo not drawn) > 76.9 µM, CCCCCCC(=O)N(O)C1CC(=O)N(c2ccccc2)C1=O (stereo not drawn) > 76.9 µM, Cc1ccc(S(=O)(=O)N2CCCN(S(=O)(=O)c3ccc(C)cc3)CC2)cc1 > 76.9 µM, Cc1cccc(S(=O)(=O)C(C#N)c2nc3ccccc3nc2N2CC(C)OC(C)C2)c1 (stereo not drawn) > 76.9 µM, COC(=O)c1cccc(NC(=O)NC2CCCN2S(=O)(=O)c2ccc(Cl)cc2)c1 (stereo not drawn) > 76.9 µM, CCCn1nnc(NC(=O)COc2ccc(Cl)cc2)n1 > 76.9 µM, Cn1c(=NC(=O)CSCC(=O)N2CCOCC2)sc2ccccc21 > 76.9 µM, COC(=O)C1(C)NC(c2cccs2)C2C(=O)N(c3ccccc3F)C(=O)C21 (stereo not drawn) > 76.9 µM, Cc1cccc(NC(=O)Cn2nnc(-c3ccc(CN4CCCC4)cc3)n2)c1C > 76.9 µM, Nc1ncnc2c1cnn2-c1ccccc1 > 76.9 µM, CS(=O)(=O)c1nncn1-c1ccccc1 > 76.9 µM, COc1ccc(NC(=O)[C@@H]2[C@@H]3C(=O)N(C4CCCCC4)C(=O)[C@@H]3C3c4ccccc4C=CN32)cc1 (stereo partly drawn), Cc1cc2c(nn1)CCc1nonc1-2 > 76.9 µM, CC1CN(Cc2nc3c(c(=O)n(C)c(=O)n3C)n2CCCc2ccccc2)CC(C)O1 (stereo not drawn) > 76.9 µM, CC(C)(C)C1CCC(OC(=O)c2ccncc2)CC1 (stereo not drawn) > 76.9 µM, CN(c1ccccc1C(=O)Nc1cccnc1)S(C)(=O)=O > 76.9 µM, COc1ccc(C(=O)n2c(-c3ccco3)nc3ccccc32)cc1 > 76.9 µM, CCC(Sc1ccc(C(=O)O)cc1)C(=O)O (stereo not drawn) > 76.9 µM, Cc1ccc(C)c(N(CC(=O)NCc2ccco2)C(=O)CCC(=O)Nc2ccccn2)c1 > 76.9 µM
